PubChem BioAssay AID2675 (National Center for Advancing Translational Sciences (NCATS), 2010)
Hit rate of the full screen: of about 280,000 compounds, about 100 (0.036%) were called active. Inconclusive results, whose numbers are uncertain, are shown with a selection of clear calls. Calls follow the shape of the dose curve; as a rule, active = well fitted inhibition curve with a large enough effect in the signal ratio, with a control signal flat (not every such curve was filed as active); inconclusive = small, poorly fitted or top-dose-only effect, or effect the other way, or a change in a side signal; inactive = no such curve, though single readings can be large or run the other way; the % refers to the signal ratio. A potency beside an inconclusive call is a rough fit, not a confirmed value. “Side channel” marks fits to a control or component signal instead of the main read-out.

Target: Muscleblind-like protein 1 (Homo sapiens) (UniProt Q9NR56)
Chain of UniProt Q9NR56 (Q9NR56 whole entry, looked up): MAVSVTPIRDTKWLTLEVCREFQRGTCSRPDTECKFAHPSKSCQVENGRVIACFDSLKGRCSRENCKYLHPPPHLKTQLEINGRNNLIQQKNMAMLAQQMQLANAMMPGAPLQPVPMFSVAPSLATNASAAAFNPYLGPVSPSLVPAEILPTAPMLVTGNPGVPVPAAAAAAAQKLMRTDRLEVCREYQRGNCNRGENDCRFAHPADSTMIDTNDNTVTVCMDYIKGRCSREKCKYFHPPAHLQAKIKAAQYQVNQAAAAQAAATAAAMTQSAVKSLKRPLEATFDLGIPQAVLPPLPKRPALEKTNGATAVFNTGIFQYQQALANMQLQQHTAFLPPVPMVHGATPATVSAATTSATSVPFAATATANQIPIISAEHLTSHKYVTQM
Assay: qHTS Assay for Inhibitors of MBNL1-poly(CUG) RNA binding
Conditions: TR-FRET MBNL1-His/biotin-(CUG)12 binding, 665/545 ratio; series mostly up to 57.5 µM
In short: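 TR-FRET readout: Ex 340 nm, 665/545 nm emission ratio, normalized to buffer-only (basal) and MBNL1-(CUG)12 controls. Complex of MBNL1-His with Biotin-(CUG)12, compounds 92 nM–58 uM, incubated 60 min at room temperature.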
Potency is read from the fitted curve at half-maximal effect; tags tell the direction and shape of the fitted curve or compound fluorescence and quenching.

SMILES | Potency
CCC(=O)NC(=S)Nc1ccc(NC(=O)c2ccccc2[N+](=O)[O-])cc1 | inconclusive: 1 µM [quencher, side channel, single point]
COc1cc(/C=C/c2cc[n+](C)cc2)ccc1OCC(=O)Nc1ccc(Cl)c(Cl)c1 | inconclusive: 28.2 µM [quencher, side channel, partial curve]
O=C(NCc1cccnc1)c1cc2nc(-c3cccs3)cc(C(F)(F)Cl)n2n1 | inconclusive: 7.08 µM [quencher, side channel, partial curve]
O=C(NC1=NCCS1)c1ccc2c(c1)C(=O)N(Cc1ccco1)C2=O | inconclusive: 4.47 µM [quencher, side channel, partial curve]
O=C(NC(=O)c1ccccc1F)Nc1nc(-c2cccs2)cc(C(F)(F)F)n1 | inconclusive: 39.8 µM [fluorescent, single point]
O=[N+]([O-])c1ccc(C=Nc2ccc(Cl)c([N+](=O)[O-])c2)s1 | inconclusive: 7.94 µM [quencher, side channel, full curve]
O=C(NCCCc1ccccc1)c1ccc(F)cc1 | inactive
Cc1cc(Cl)ccc1NC(=S)NCc1ccccc1 | inactive
COc1cc(C2NC(=O)NC(C)=C2C(=O)OC2CCCC(C)C2)ccc1O (configuration not stated) | inconclusive: 39.8 µM [quencher, side channel, single point]
C=C(C)C1CC=C(C)/C(=N/NC(=O)c2ccoc2C)C1 (configuration not stated) | inconclusive: 2.24 µM [quencher, side channel, single point]
Nc1cc(=O)[nH]c(SCC(=O)Nc2cccc([N+](=O)[O-])c2)n1 | inconclusive: 11.2 µM [quencher, side channel, partial curve]
NS(=O)(=O)c1ccc(CCNC(=O)c2ccc(C#CC3(O)CCCCC3)cc2)cc1 | inactive
Nc1c(Cl)ncnc1N/N=C/c1ccccn1 | inconclusive: 20 µM [quencher, side channel, single point]
COc1ccc(N(C(=O)Cc2cccs2)C(C(=O)NC2CCCC2)c2ccncc2)cc1OC (configuration not stated) | inactive
CC(C)(C)n1nc2c(c1NC(=O)c1ccc([N+](=O)[O-])cc1)CS(=O)(=O)C2 | inconclusive: 15.8 µM [quencher, side channel, partial curve]
O=[N+]([O-])c1ccc(Nc2nc(Cl)nc(NCCO)n2)cc1 | inconclusive: 3.16 µM [quencher, side channel, full curve]
COc1ccc2cc(-c3ccccc3)c(=O)oc2c1 | inconclusive: 8.91 µM [quencher, side channel, partial curve]
CCOc1cccc2cc(-c3nnc(NCc4ccco4)s3)c(=O)oc12 | inconclusive: 11.2 µM [quencher, side channel, partial curve]
COc1ccc(N2CCN(C(=O)c3cccc(Br)c3)CC2)c([N+](=O)[O-])c1 | inconclusive: 11.2 µM [quencher, side channel, partial curve]

SMILES | Potency
O=[N+]([O-])c1cc(/C=N/Nc2nc3ccccc3[nH]2)c(O)cc1O | inconclusive: 15.8 µM [quencher, side channel, partial curve]
COc1cc(OC)c2c(c1)OC(c1ccc(OC)c(OC)c1)C(O)C2=O (configuration not stated) | inconclusive: 39.8 µM [quencher, side channel, single point]
Nc1ncc(-c2ccc([N+](=O)[O-])cc2)cn1 | inconclusive: 10 µM [quencher, side channel, partial curve]
O=C(Nc1ccc(Cl)c(Cl)c1)Nc1ccccc1O | inconclusive: 14.1 µM [quencher, side channel, partial curve]
COc1ccccc1N1C(=O)c2ccc(C(=O)Nc3ccccc3O)cc2C1=O | inconclusive: 5.01 µM [quencher, side channel, partial curve]
COc1ccc(-c2cc(C(F)(F)F)n3nc(C(=O)NCc4ccco4)cc3n2)cc1 | inconclusive: 11.2 µM [quencher, side channel, partial curve, poor fit]
CN(C)c1ccc(/C=C2\SC(=O)N(CCc3nnc(N)s3)C2=O)cc1 | inconclusive: 2.82 µM [quencher, side channel, full curve]
Cc1csc2nc(NC(=O)c3ccccc3)sc(=O)c12 | inactive
CN1CCN(c2oc(-c3ccccc3)nc2S(=O)(=O)c2ccc(Br)cc2)CC1 | inactive
CCOC(=O)N1CCC(N(CCN(C)C)C(=S)Nc2ccc(Oc3ccccc3)cc2)CC1 | inactive
Cc1ccc(C(=O)O)cc1NC(=S)NC(=O)c1ccc([N+](=O)[O-])cc1Cl | inconclusive: 5.62 µM [quencher, side channel, partial curve]
CN1CCN(c2ccccc2NC(=O)c2ccc([N+](=O)[O-])o2)CC1 | inconclusive: 11.2 µM [quencher, side channel, partial curve]
COc1ccc2c(ccc[n+]2CC(=O)c2ccccc2)c1 | inconclusive: 14.1 µM [quencher, side channel, partial curve]
CC(=O)N/C(=C\c1ccc(F)cc1)C(=O)N(C)C | inconclusive: 0.794 µM [quencher, side channel, partial curve]
O=C(Nc1nnc(SCc2ccccc2)s1)c1cccc([N+](=O)[O-])c1 | inconclusive: 39.8 µM [quencher, side channel, partial curve, poor fit]
CSCCC(NC(=O)c1ccc([N+](=O)[O-])cc1Cl)C(=O)OCC(=O)NC1CCCC(C)C1C (configuration not stated) | inconclusive: 8.91 µM [quencher, side channel, partial curve]
Cc1ccc(NC(=O)CCC(=O)N/N=C/c2ccc([N+](=O)[O-])o2)cc1C | inconclusive: 2.82 µM [quencher, side channel, partial curve, poor fit]
CCc1cccc(C)c1NC(=O)CNCc1ccccc1 | inconclusive: 251 µM [inhibitor, partial curve]
COc1cc(C(=O)N2CCN(c3ccccc3OC)CC2)c([N+](=O)[O-])cc1OC | inconclusive: 15.8 µM [quencher, side channel, partial curve]

SMILES | Potency
COC(=O)CN(C(=S)Nc1ccc(F)cc1)C1CC(=O)N(c2ccccc2)C1=O (configuration not stated) | inconclusive: 0.1 µM [fluorescent, side channel, full curve]
Cc1ccnc(NS(=O)(=O)c2cccc3nsnc23)c1 | inconclusive: 15.8 µM [quencher, side channel, partial curve]
Cc1cc(NC(=O)CSc2nc3cc(Cl)ccc3o2)no1 | inactive
Cc1cc(C)cc(N=c2c([N+](=O)[O-])nn(-c3cccc(Cl)c3)n2O)c1 | inconclusive: 14.1 µM [quencher, side channel, partial curve]
CN1CCc2c(sc3c2C(=O)NC(c2ccco2)N3)C1 (configuration not stated) | inconclusive: 15.8 µM [quencher, side channel, partial curve]
COC(=O)COc1ccc(NS(=O)(=O)c2cccc([N+](=O)[O-])c2)cc1 | inconclusive: 12.6 µM [quencher, side channel, partial curve]
CN(C)/C=N/c1nc2nccc(-c3cccs3)n2n1 | inconclusive: 15.8 µM [quencher, side channel, partial curve]
CCOc1ccc(NC(=O)CCSc2ccc3ccccc3n2)cc1 | inconclusive: 31.6 µM [fluorescent, side channel, single point]
O=C(Nc1cccc(Cl)c1)c1ccc(-n2cncn2)c([N+](=O)[O-])c1 | inconclusive: 12.6 µM [quencher, side channel, partial curve]
COc1ccc(C2=NS(=O)(=O)N(C)C(C(=O)NCc3ccc(F)cc3)=C2)cc1OC | inconclusive: 25.1 µM [quencher, side channel, partial curve]
O=C(C1=NN[C@@H]2C(=O)N(Cc3ccccc3)C(=O)[C@H]12)c1ccc([N+](=O)[O-])cc1 | inconclusive: 10 µM [quencher, side channel, partial curve]
COC(=O)c1c(C)[nH]c(C)c1-c1ccc(C)cc1 | inactive
O=C1CCCN1c1ccc(S(=O)(=O)Oc2cccc(Cl)c2)cc1[N+](=O)[O-] | inconclusive: 22.4 µM [quencher, side channel, single point]
Cn1nnnc1Sc1ccc([N+](=O)[O-])cc1Cl | inconclusive: 25.1 µM [quencher, side channel, partial curve]
Cc1ccc([N+](=O)[O-])cc1S(=O)(=O)N1CCN(C)CC1 | inconclusive: 11.2 µM [quencher, side channel, partial curve]
O=C(OCc1nnc(-c2ccccc2)o1)c1cc(Cl)ccc1[N+](=O)[O-] | inconclusive: 25.1 µM [quencher, side channel, partial curve]
CC(=O)Nc1ccc(NC(=O)c2nccnc2C(=O)O)cn1 | inconclusive: 15.8 µM [quencher, side channel, partial curve]
Nc1[nH]n2c(=O)c3c(nc2c1N=Nc1ccc(Cl)cc1)CCCC3 | inactive
CCn1c2ccc(C)cc2c2nnc(SCCN3CCOCC3)nc21 | inconclusive: 12.6 µM [quencher, side channel, partial curve, poor fit]
